# Assay results reported in PMC4336329 (PLoS ONE, 2015).
# Screen size: about 310,000 compounds; about 2,200 (0.71%) showed an effect of 50% or more. The effect is printed as a negative number. The list shows a part of the results.
# Target: human ether-à-go-go-related gene (hERG) potassium channel (human, UniProt Q12809)
# Assay: primary screen, population patch clamp on CHO cells stably expressing hERG
# Sequence of human ether-à-go-go-related gene (hERG) potassium channel (Q12809 whole entry, looked up): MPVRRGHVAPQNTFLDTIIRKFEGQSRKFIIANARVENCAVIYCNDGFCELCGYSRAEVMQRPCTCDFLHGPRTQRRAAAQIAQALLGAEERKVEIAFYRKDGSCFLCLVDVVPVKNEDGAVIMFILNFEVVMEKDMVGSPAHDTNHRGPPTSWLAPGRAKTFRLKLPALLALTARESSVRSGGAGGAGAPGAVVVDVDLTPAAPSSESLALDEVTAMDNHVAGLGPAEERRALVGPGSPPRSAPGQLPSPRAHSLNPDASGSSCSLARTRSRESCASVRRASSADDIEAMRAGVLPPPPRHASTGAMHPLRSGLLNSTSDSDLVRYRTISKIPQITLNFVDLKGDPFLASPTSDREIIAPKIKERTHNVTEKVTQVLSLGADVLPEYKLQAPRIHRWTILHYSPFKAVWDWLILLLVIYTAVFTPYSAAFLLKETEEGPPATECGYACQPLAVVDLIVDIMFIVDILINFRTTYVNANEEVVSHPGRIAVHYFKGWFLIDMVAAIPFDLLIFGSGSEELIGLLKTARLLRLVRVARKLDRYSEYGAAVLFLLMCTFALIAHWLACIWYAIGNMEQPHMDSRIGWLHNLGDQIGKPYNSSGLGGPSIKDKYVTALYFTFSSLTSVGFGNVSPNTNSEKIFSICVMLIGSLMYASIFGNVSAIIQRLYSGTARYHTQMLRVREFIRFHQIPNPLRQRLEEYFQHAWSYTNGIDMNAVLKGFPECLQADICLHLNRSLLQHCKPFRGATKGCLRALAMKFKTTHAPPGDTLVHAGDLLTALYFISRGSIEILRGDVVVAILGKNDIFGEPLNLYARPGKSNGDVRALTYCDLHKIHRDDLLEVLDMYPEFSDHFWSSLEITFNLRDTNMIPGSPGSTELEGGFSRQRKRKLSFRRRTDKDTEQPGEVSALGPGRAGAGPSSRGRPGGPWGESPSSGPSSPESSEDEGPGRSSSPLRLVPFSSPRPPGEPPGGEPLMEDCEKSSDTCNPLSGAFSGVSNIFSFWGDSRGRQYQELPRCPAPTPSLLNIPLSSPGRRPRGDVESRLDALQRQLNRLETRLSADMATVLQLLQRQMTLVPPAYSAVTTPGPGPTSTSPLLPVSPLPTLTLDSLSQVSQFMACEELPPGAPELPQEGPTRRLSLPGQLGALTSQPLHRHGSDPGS
row,Structure (SMILES),"hERG current change (%, negative = inhibition) at 1uM [%]"
1,CC(=O)c1cccc(Nc2cc(C)nc3ccc(C)cc23)c1.Cl,-13.7
2,COC(=O)c1sccc1NC(=O)c1cccnc1,7.85
3,c1ccc(-n2nnc3c(N4CCOCC4)ncnc32)cc1,-2.95
4,COc1c(Br)cc(C(N)=O)cc1OCc1ccccc1,10.3
5,COC(=O)c1c(C(=O)OC)c(-c2ccc(OC)cc2)n2c1CCC2,13
6,O=C(O)C1(O)C[C@H](O)C(O)[C@@H](O)C1 (stereo partly drawn),7.65
7,CC(C)n1cc(C(=O)N(CC(=O)NC(C)(C)C)Cc2ccccc2)cn1,11
8,Clc1cccc(N2CCN(Cc3nc(-c4ccccc4)no3)CC2)c1,0.335
9,CC1(C)CC(=O)C(C=NCC2CCN(C(=O)Nc3ccc(Cl)c(Cl)c3)CC2)=C(O)C1,-5.55
10,Cn1cc(CN2C[C@]3(C)C[C@H]2CC(C)(C)C3)c(-c2ccc3c(c2)OCCO3)n1,7.45
11,COc1ccc(CNC(=O)[C@@H](C)NC(=O)C2CCN(C(=O)[C@@H](N)CCSC)CC2)cc1,19.3
12,CN(C)/C=N/n1cnc2ccccc2c1=O,11.6
13,O=C(Cn1cnc2c(oc3ccccc32)c1=O)NCCc1ccccc1,6.35
14,Cc1ccccc1NC(=O)N1C2CCC1CC(O)(c1cccnc1)C2 (stereo not drawn),-3.81
15,COc1cc(C=O)ccc1OCC(=O)Nc1cccc(S(=O)(=O)N(C)c2ccccc2)c1,2.33
16,Cc1cc2c(C)nc(-c3ccccc3)nc2o1,5.09
17,CCOc1ccc(Oc2nc(N(CC)CC)nc(N3CCOCC3)n2)nn1,10.8
18,CC(OC(=O)c1ccc2c(c1)OCCO2)C(=O)NC1CCCCC1C (stereo not drawn),8.83
19,CN1C(C)(C)CC(NC(=O)CCC(=O)NC2CC(C)(C)N(C)C(C)(C)C2)CC1(C)C,14.2
20,O=C(CNC(=O)c1nc[nH]c1C(=O)NCc1ccccc1)OCc1ccccc1,6.38
21,NS(=O)(=O)c1ccc(NC(=S)N2CCC(Cc3ccccc3)CC2)cc1,6.78
22,O=C(N/C(=C/c1cccs1)C(=O)N1CCOCC1)c1cccs1,8.07
23,Cc1ccc(C)c(S(=O)(=O)N2CCCOC2CNC(=O)C(=O)NCCc2ccco2)c1 (stereo not drawn),15.1

row,Structure (SMILES),"hERG current change (%, negative = inhibition) at 1uM [%]"
1,CN(C(=O)Oc1ccc(C(=O)c2ccc(Cl)cc2)cc1)c1ccccc1,8.97
2,C=CCOc1c(CNc2cccc(C(=O)O)c2)cccc1OC,-5.37
3,CC1(C)CC(=O)C=C(NCc2ccc(C(=O)O)cc2)C1,5.74
4,COc1ccccc1/C=C/c1nc(S(=O)(=O)c2ccccc2)c(NCCN(C)C)o1,2.57
5,Cc1ccc(OCCCn2ccnc2)cc1C,8.04
6,Cc1ccc(NC(=O)CCn2cccc2)cc1Cl,13.2
7,NC(=O)[C@@H]1CCCNc2c(I)cc([N+](=O)[O-])cc2C(=O)N[C@@H](CCCN=C(N)N)C(=O)N[C@@H](CCCN=C(N)N)C(=O)N1,11.8
8,O=C(NCCCn1ccnc1)c1ccccc1Br,8.68
9,Cn1nnnc1SCC(=O)Nc1ccc(S(=O)(=O)N2CCOCC2)cc1,10
10,Cc1cc2[nH]c(=O)c(=O)[nH]c2cc1S(=O)(=O)NCc1ccccc1,15.5
11,O=C(CCc1nnc2ccc(NCc3ccco3)nn12)N1CCN(c2ccccc2F)CC1,0.147
12,O=C(Nc1ccc(O)cc1)c1ccc(NC(=O)c2ccco2)cc1,11.6
13,CC(=O)N1N=C(c2ccc(C)cc2)OC1c1ccc(C(C)C)cc1 (stereo not drawn),13.2
14,Cc1cccc(NC(=O)CCC(=O)NCCO)c1,14
15,Oc1ccccc1-[n+]1c(-c2ccccc2)cc(-c2ccccc2)c(O)c1-c1ccccc1.[O-][Cl+3]([O-])([O-])[O-],13
16,Cc1nn(C(C)C(=O)NCCCc2ccccc2)c(=O)c2cc3occc3n12 (stereo not drawn),2.45
17,O=C(OCCN1C(=O)c2ccccc2C1=O)c1cnccn1,13.6
18,COc1cccc(NS(=O)(=O)NC(=O)c2c[nH]c3ccccc23)c1,8.47
19,O=C(CCC(=O)N1CCOc2ccccc21)N1CCCCC1,0.834
20,O=C1CCCCCN1Cc1nnc(SCc2nc3ccccc3s2)n1-c1ccccn1,9.51
21,CCC(CC)C(=O)Nc1nnc(SCC(=O)NC2CCCCC2)s1,12.2
22,O=C(c1ccc(Cl)c(S(=O)(=O)N2CCCCCC2)c1)N1CCN(c2ccccc2O)CC1,6.28
23,O=C(NCCS(=O)(=O)N1CCN(c2ccccc2)CC1)C1CC1,11

row,Structure (SMILES),"hERG current change (%, negative = inhibition) at 1uM [%]"
1,CCC(C(=O)N1CCOCC1)n1nc(C)c2c(C)n(-c3ccccc3)nc2c1=O (stereo not drawn),6.73
2,CC1CCN(C(=O)CSc2nc3c(c(=O)n2C)SCC3)CC1,12.2
3,Cl.Nc1cc(Cl)ccc1Oc1ccc(Cl)cc1,9.81
4,O=c1cc(CN2CCN(S(=O)(=O)c3ccccc3[N+](=O)[O-])CC2)nc2sccn12,-10.7
5,Cc1ccccc1NC(=O)Cn1c(=O)n(CC2CCCO2)c(=O)c2ccccc21 (stereo not drawn),14
6,Cc1c(CCOC(=O)C23CC4CC(CC(C)(C4)C2)C3)sc[n+]1Cc1ccccc1.[Cl-],-0.114
7,Cc1ccc(OC(=O)CCC(=O)NC(C)c2ccccc2)cc1 (stereo not drawn),9.51
8,CCNS(=O)(=O)c1ccc(CCC(=O)NC2CCCC2)cc1,17.8
9,Cc1ccc2nc(NC(=O)c3ccc4ncsc4c3)sc2c1,8.42
10,COC(CNC(=O)CNC(=S)N(CCCN1CCOCC1)Cc1cccs1)OC,10.7
11,CCCCCn1c(C(C)NC(=O)CCC)nc2ccccc21 (stereo not drawn),-1.01
12,CCOc1ccc(C(C)NC(=S)NC2CCCCC2)cc1OCC (stereo not drawn),13.3
13,Cc1nnc2n(Cc3ccccc3)c(=O)c3c4c(sc3n12)COC(C)(C)C4,6.63
14,Cc1cc(C)c2cc(C(=O)Nc3ccc(C)c(F)c3)[nH]c2c1,13.5
15,O=Cc1cccn1-c1ccccc1,16.9
16,O=C(NCc1cccs1)C1CCCN(S(=O)(=O)c2cccc3cccnc23)C1 (stereo not drawn),-6.11
17,CN(C)/C=N/c1sc2c(c1C#N)CC(C)(C)NC2(C)C,12.3
18,C=CCn1c(NCc2ccco2)nc2ccccc21,10.9
19,CCN(CC)CCCNCC(=O)Nc1cc(C)on1.O=C(O)C(=O)O,5.61
20,Cc1onc(-c2ccccc2)c1C(=O)OCC(=O)c1ccccc1,7.18
21,COc1cc2cc(CCOC(=O)c3ccc(C(F)(F)F)cc3)oc(=O)c2cc1OC,15.4
22,O=C(NC(=S)Nc1ccc(Br)cc1)C1CCCCC1,9.25
23,Cc1cc(NC(=O)c2cccc(C)c2[N+](=O)[O-])no1,11.6

row,Structure (SMILES),"hERG current change (%, negative = inhibition) at 1uM [%]"
1,COc1ccccc1C(=O)Nc1nnc(S(=O)(=O)N2CCOCC2)s1,11.2
2,O=C(Cn1cncn1)NCc1cccc(C(F)(F)F)c1,13.4
3,Cl.NS(=O)(=O)c1ccc(CCNCc2ccccc2OCc2ccc(Cl)cc2)cc1,-70.5
4,Cc1cc(C(F)(F)F)nc(SCC(=O)Nc2cc(C)on2)n1,2.26
5,Cc1ccc2cccc(OCCCOc3ccccc3CO)c2n1,8.64
6,COCC(C)N1CCC(n2nccc2NC(=O)CCOc2ccccc2)CC1 (stereo not drawn),1.52
7,CC1=Nn2c(nnc2-c2ccc(F)cc2)SC1,2.16
8,O=[N+]([O-])c1ccc(C(O)C(CO)NC(=S)Nc2ccccc2)cc1 (stereo not drawn),6.18
9,CN1C(=O)/C(=C/c2cccc(Cl)c2)Sc2ccc(C(=O)NCc3cccnc3)cc21,7.79
10,Cc1nc2cc(C(=O)N3CCc4ccccc43)ccc2n1-c1ccc(F)c(F)c1,-4.3
11,COc1ccc(CSCCNC(=S)Nc2ccccc2)cc1Cl,17
12,O=C(c1cc(-c2ccc(Cl)s2)nc2ccccc12)N1CCCC1,8.74
13,C/C(=N/OC(=O)c1ccc(Cl)cc1Cl)c1oc(C)nc1C,9.71
14,CCOCCCNCc1ccc(Cl)cc1,-1.64
15,O=C(Nc1ccc(N2CCOCC2)cc1Cl)C1CCN(C(=O)OCc2ccccc2)CC1,9.14
16,O=C1NC(=S)N/C1=C/c1cccn1-c1ccc([N+](=O)[O-])cc1,13.2
17,Cc1ccc(-c2ccc(OC(=O)c3ccc(=O)[nH]c3)c(C)c2)cc1,7.2
18,CCc1cccc(C)c1N(C(=O)Cn1c(=O)[nH]c2ccccc21)C(C)COC (stereo not drawn),10.3
19,COc1ccc(/C=N/NC(=S)NCC2CCCO2)cc1 (stereo not drawn),14.4
20,Cc1ccc(C(=O)CC2(O)C(=O)N(CCc3ccccc3)c3ccc(Br)cc32)o1 (stereo not drawn),2.06
21,Cc1nn(-c2ccccc2)c(C)c1NC(=O)COc1ccc(Cl)cc1Cl,-18.7
